Experimental data reported in the supplement of paper PMC3334620.
Over roughly 33,000 sequences, “E-score (-0.5 to 0.5)” has its median near -0.01; the highest 2% begin near 0.26. The list shows a part of the results.

These sequences were tested against Ste12 (UniProt P13574) (assay: PBM E-score (8-mer binding enrichment) (E-score (-0.5 to 0.5)); higher = stronger / more preferred TF binding; most listed sequences are background and not binding sites). Conditions: protein concentration: 200 nM; construct: GST-DNA-binding domain.
Procedure, shortened: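 Bound GST-tagged yeast transcription factors, applied at about 100-200 nM to double-stranded universal all-10-mer Agilent arrays, were detected with fluorescent anti-GST. Scans were normalised with masliner. A modified Wilcoxon-Mann-Whitney statistic, the E-score, was assigned to each ungapped eight-base word pooled with its reverse complement by the Universal PBM Analysis Suite.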

Sequence	PBM E-score
CCGAGTTA	-0.0289
ATCATCCG	-0.034
TCGGCACA	-0.094
GACGGCCC	-0.16
ACCCGGCT	0.0608
CTGTTCCA	-0.0105
AAGCAGGC	-0.228
TCTGCACA	0.066
GACTGTTA	-0.0718
GAAATCTC	-0.109
GGCCGTCA	0.00666
ATTGACTA	0.154
CCAGGGAG	-0.199
CTCTTGGA	-0.0611
CCTGCGCG	-0.139
CCGCCTCA	-0.0226
AGAAGGGG	-0.128
CATCCTTA	-0.0117
ACATTCAC	0.205
ACGTTAAC	-0.0588
CGAAGATA	0.237
GTCTCCCA	-0.2
ATTTGATG	0.126
ACGCTCTG	-0.106
CCACCATA	0.143

Sequence	PBM E-score
ACCAACCC	-0.186
CGCGCCGC	0.142
CATGGACG	-0.117
CTGTGCCA	0.0264
CGCTCCCG	-0.0785
ACGTCGGA	-0.0246
ACAGCTGA	-0.0336
AGAATTAT	0.145
AAGTCACC	-0.0787
CTAAGCTA	0.0984
AACGCGTG	0.104
CTTCCTCC	-0.116
AGGTTCAG	-0.107
CTTAAAAA	0.22
GGAGCTGA	-0.167
ACTGCTCC	-0.108
AGTCGGGC	-0.00532
GAATGGAA	0.0462
GGATCGGA	-0.0609
CCTCCGAG	-0.00323
TGCAAGAA	0.217
GATGGTCA	-0.187
AAATCAGG	0.0787
CCAGAGGA	-0.0683
ACACGAGG	-0.185

Sequence	PBM E-score
CCGAACGC	0.111
AAGGGTAA	0.0708
CGAAATCG	0.0722
CTTAGATC	-0.0476
CTGAACAA	0.0423
CGGCCAGA	0.11
ACTGTATG	0.111
GGTGACTA	-0.014
CCTGATGC	-0.0515
AACCCATT	0.137
ACGGCTAG	-0.175
AGGTGACG	-0.0406
AAGAGTCG	-0.029
CCCGAGAA	-0.059
ATTGAACA	-0.184
ATACCCAG	-0.212
CAATATAA	0.316
TGCGAGCA	0.0352
CGTACGGC	-0.295
ATATAACG	0.117
CACGTCAC	-0.0135
GGGATCCA	-0.0636
CGTGTAGA	-0.17
CGCAGGCC	-0.0991
CGAAGCCC	-0.192

Sequence	PBM E-score
GGCCACAA	0.0783
AAGCAGTG	0.0293
GAAACGGA	0.343
ATTGTCGC	-0.0604
ATATGAGG	0.119
CGCAGCGA	0.0229
CGCGCGTC	0.0795
CCCCGCAG	-0.0523
CCTCTATA	-0.181
ACGAAAAA	0.193
CGGCTAAG	0.0459
AAAGCTAG	-0.136
CTCGAGGC	0.0437
CCGGCACG	0.0757
GGGTCCCA	-0.198
CGTTCGAG	0.0395
ACCACGGC	0.0716
CGACGACA	-0.141
AGGAGTCA	-0.0486
GGAAGAAC	0.145
AATGTCGA	0.0998
CGATTGAG	-0.0934
ACTATGAG	0.0271
GAATTATA	0.0936
CTACTACA	0.0777

Sequence	PBM E-score
CAACAGTG	0.104
ACACCCCA	0.111
TCTGTTCA	0.116
CTATAGGA	-0.0736
ATCCTCCA	-0.0976
ACGACTAC	-0.16
GCTGTGAC	0.0498
CCGCCTCG	0.0814
AGGTTGTA	-0.0118
ACCCACGG	-0.198
ACGTGGCA	-0.00588
AAATGCGA	0.137
CGGGCTTC	-0.213
ACAGGAAC	-0.22
TTCATAAA	0.324
GGCGACGA	-0.183
AGTGTCGA	0.0108
GACTTATA	0.108
GCATTGTA	0.00828
ATCTCGGA	0.112
ACACTACG	0.0597
CAATTGTC	0.00294
CACGAAAC	0.266
GGCAAAAC	0.133
CCGTGCCA	-0.0583

Sequence	PBM E-score
ACATGCTC	-0.0805
ATATAAGC	0.00789
TAATGGGA	-0.0633
TAGCAGCA	-0.0575
CCGACGCG	0.0801
TCATCCGA	0.156
CCTCCAAC	-0.0724
ACGATATA	0.0426
CACAGAAG	0.0368
AGTCCAAG	-0.0393
TCTATTAA	0.194
GGAAAGAC	-0.0937
ATAAAAGG	0.0863
GAAATTTA	0.166
CCTAAGCG	-0.0853
GCTGGTGA	-0.00584
GCGACCTA	-0.062
AGGACAAC	-0.053
GCAATACC	-0.112
GTTAGCCA	-0.00505
AACTACGT	-0.146
ACATATAA	0.241
ATTACAGG	0.139
ATGACAGA	-0.0195
GGACCGAA	0.0478

Sequence	PBM E-score
AAGGGAAC	-0.0941
ACGGCCGT	-0.0176
ATCTAAGA	0.236
ACGTAACA	0.125
ATGTGTGC	-0.0685
CTTGCGGA	-0.232
TAGTGCAA	0.0163
CATAACGA	0.0786
CGCAATAA	0.152
CCGAACCG	-0.0618
AGCGACAT	-0.0374
ATTATACA	0.00029
CAAGGAGA	-0.168
AAAACGAT	0.0767
CAAATCGC	-0.109
GAGGGACC	-0.154
CTTAAGTC	-0.0579
ACGCTCGG	-0.0861
AACGCCCT	-0.0731
CGGAGGAG	0.00265
CAACAGCG	0.0502
GGGGCCAC	-0.0652
